Measurements from patent publication US20040022787A1 (Bristol-Myers Squibb, published 2004).

The binders below were run against T1, CD86Ig (UniProt P42081 24-247) (assay: SPR screening of COS culture media over immobilized CD86Ig).
T1 construct: Immobilized on the BIAcore sensor chip; also called soluble CD86Ig

CD86Ig, sequence (P42081 24-247): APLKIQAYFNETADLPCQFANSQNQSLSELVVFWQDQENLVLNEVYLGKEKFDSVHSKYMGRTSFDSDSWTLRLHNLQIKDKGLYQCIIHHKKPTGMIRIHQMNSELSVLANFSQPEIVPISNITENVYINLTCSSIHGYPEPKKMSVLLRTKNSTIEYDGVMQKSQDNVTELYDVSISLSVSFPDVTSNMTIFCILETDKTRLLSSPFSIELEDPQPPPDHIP

Binder	fold slower off rate than wild type CTLA4Ig
L104EA29LIg (Fc fusion, Tested as COS cell culture medium) MHVAQPAVVLASSRGIASFVCEYASPGKLTEVRVTVLRQADSQVTEVCAATYMMGNELTFLDDSICTGTSSGNQVNLTIQGLRAMDTGLYICKVELMYPPPYYEGIGNGTQIYVIDPEPCPDSDQ[gap - human IgG1 Fc with changes]	~4 fold
L104EA29WIg (Fc fusion, Tested as COS cell culture medium) MHVAQPAVVLASSRGIASFVCEYASPGKWTEVRVTVLRQADSQVTEVCAATYMMGNELTFLDDSICTGTSSGNQVNLTIQGLRAMDTGLYICKVELMYPPPYYEGIGNGTQIYVIDPEPCPDSDQ[gap - human IgG1 Fc with changes]	~4 fold
L104EA29TIg (Fc fusion, Tested as COS cell culture medium) MHVAQPAVVLASSRGIASFVCEYASPGKTTEVRVTVLRQADSQVTEVCAATYMMGNELTFLDDSICTGTSSGNQVNLTIQGLRAMDTGLYICKVELMYPPPYYEGIGNGTQIYVIDPEPCPDSDQ[gap - human IgG1 Fc with changes]	~4 fold
